Data as given in PubChem BioAssay AID2675 (National Center for Advancing Translational Sciences (NCATS), 2010).
In all, about 280,000 compounds went through this assay and about 100 (0.036%) were called active. Inconclusive results, whose numbers are uncertain, are shown with a selection of clear calls. Calls come from the whole dose curve; as a rule, active = well fitted inhibition curve with a large enough effect in the signal ratio, with a control signal flat (not every such curve was filed as active); inconclusive = small, poorly fitted or top-dose-only effect, or effect the other way, or a change in a side signal; inactive = no such curve, though single readings can be large or run the other way; the % refers to the signal ratio. A potency beside an inconclusive call is a rough fit, not a confirmed value. A note “side channel” means that the fit belongs to a control or component signal, not to the main read-out.

Biological target: Muscleblind-like protein 1 (Homo sapiens) (UniProt Q9NR56)
UniProt Q9NR56, sequence (Q9NR56 whole entry, looked up): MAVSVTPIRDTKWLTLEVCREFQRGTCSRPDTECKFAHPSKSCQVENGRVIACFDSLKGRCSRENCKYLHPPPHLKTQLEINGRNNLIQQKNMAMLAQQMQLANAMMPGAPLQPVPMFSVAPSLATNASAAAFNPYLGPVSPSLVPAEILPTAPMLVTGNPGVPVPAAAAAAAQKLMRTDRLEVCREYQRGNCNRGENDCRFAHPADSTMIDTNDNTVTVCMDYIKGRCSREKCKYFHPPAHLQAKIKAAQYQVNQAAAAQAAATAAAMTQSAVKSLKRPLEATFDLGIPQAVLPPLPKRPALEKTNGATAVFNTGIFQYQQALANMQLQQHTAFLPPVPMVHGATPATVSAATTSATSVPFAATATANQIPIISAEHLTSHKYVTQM
Experiment: qHTS Assay for Inhibitors of MBNL1-poly(CUG) RNA binding
Settings: TR-FRET MBNL1-His/biotin-(CUG)12 binding, 665/545 ratio; activity change, negative = inhibition: at 57.5 µM (top of the series)
Outline: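 TR-FRET between His-tagged MBNL1 and biotin-(CUG)12 RNA, detected with Tb anti-His antibody (0.055 ng/ul) and streptavidin-XL665 (5 nM), 60 min at room temperature. Compounds titrated 92 nM to 58 uM; 665/545 nm ratio normalized to buffer and complex controls.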
% is set by controls: 0 for no effect and ±100 for the full control effect; potency is the fitted concentration of half-maximal effect; tags give direction and shape of the fitted curve or compound fluorescence and quenching.

Which “activity change, negative = inhibition” value does the source give for `CC(C(=O)Nc1ccccc1)N1C(=O)c2ccccc2C1=O` (centres undefined) here?
The value was inactive: -2.34%.

How did the Potency turn out when `COCCNC(=O)CCC1CCN(Cc2ccc(-c3ccccc3)cc2)CC1` was run?
Its Potency is active: 15.8 µM.

Which Potency does the source give for `C/C(=N/NC(=O)c1ccc(Cl)s1)c1cccnc1` here?
The Potency was inconclusive: 39.8 µM [quencher, single point].

How did the Potency turn out when `CC1=C(C(=O)OC(C)C)C2(O)C(=O)c3ccccc3C2(O)N1` (centres undefined) was run?
Its Potency is inconclusive: 50.1 µM [inhibitor, single point].

How did the Potency turn out when `CCOC(=O)c1c(-c2ccccc2)nnn1-c1nc(OCC)nc(N2CCCCC2)n1` was run?
The Potency was inconclusive: 0.794 µM [quencher, side channel, full curve, poor fit].

With `O=C(Nc1ccccc1F)c1ccc(COc2ccc(Cl)cc2Cl)o1` as the molecule, how does the Potency read?
Its Potency is inconclusive: 7.94 µM [quencher, side channel, single point].

How did the Potency turn out when `CCCCC1=CC2=CC(=O)C(C)(OC(=O)CC)C(=O)C2=CN1CCc1c[nH]c2ccccc12` (centres undefined) was run?
The Potency was inconclusive: 28.2 µM [quencher, side channel, single point].

Which Potency does the source give for `Cc1ccccc1-n1c2nc(=O)n(C)c(=O)c-2cc2ccccc21` here?
The Potency was inconclusive: 2.82 µM [quencher, side channel, full curve].

With `CCn1c2ccccc2c2nc3ccccc3nc21` as the molecule, how does the Potency read?
The Potency was inconclusive: 31.6 µM [quencher, side channel, single point].

Which Potency does the source give for `Cc1nc2ccccc2n1CC(=O)NCCN1CCCC1` here?
Its Potency is inconclusive: 5.01 µM [quencher, side channel, full curve].

With `O=C(CCc1ccc(S(=O)(=O)NCCc2ccccc2)cc1)Nc1ccc2c(c1)OCCO2` as the molecule, how does the Potency read?
Its Potency is inconclusive: 3.55 µM [fluorescent, side channel, partial curve].

With `C=C(C)C(=O)Nc1cccc(C2=NOC3(C2)C[C@@H](C(N)=O)N(C(=O)c2cc([N+](=O)[O-])cc([N+](=O)[O-])c2C)C3)c1` (some centres undefined) as the molecule, how does the Potency read?
Its Potency is inconclusive: 20 µM [quencher, partial curve, poor fit].

For `CS(=O)(=O)/C(C#N)=C/c1c(-c2ccccc2)nc2n1CCS2`, which Potency is on record?
Its Potency is inconclusive: 3.55 µM [quencher, side channel, partial curve].

`O=S1CC/C(=N\O)c2ccccc21` (centres undefined) was tested. Which Potency did it give?
The Potency was inconclusive: 0.562 µM [quencher, side channel, full curve, poor fit].

`COc1ccc2c(c1OC)C(=O)N1N=C(c3ccc(Br)cc3)CC21` (centres undefined) was tested. Which “activity change, negative = inhibition” value did it give?
Its value is inactive: 23.9%.

`CN(C)c1ccc(NC(=S)NCC2CCCO2)cc1` (centres undefined) was tested. Which Potency did it give?
Its Potency is inconclusive: 8.91 µM [quencher, side channel, single point].

`O=C(ONC1=NCCCCC1)c1ccc([N+](=O)[O-])cc1` was tested. Which Potency did it give?
The Potency was inconclusive: 12.6 µM [quencher, side channel, partial curve].

`CCOC(=O)C1CCN(C(=O)Nc2cccc(Cl)c2)CC1` was tested. Which Potency did it give?
The Potency was inconclusive: 3.55 µM [fluorescent, side channel, partial curve].

For `O=C(CSc1ccc([N+](=O)[O-])cc1)NNC(=O)c1ccccc1F`, which Potency is on record?
Its Potency is inconclusive: 10 µM [quencher, side channel, partial curve].

With `Cc1ccc(-c2ccc(/C=N/NC(N)=S)o2)cc1` as the molecule, how does the Potency read?
Its Potency is inconclusive: 25.1 µM [quencher, side channel, partial curve].

`CN(C(=O)c1ccc(N2CCOCC2)c([N+](=O)[O-])c1)C1CCCCC1` was tested. Which Potency did it give?
Its Potency is inconclusive: 28.2 µM [quencher, side channel, partial curve].

With `COc1ccc(C(=O)Nc2nnc(CC(=O)N/N=C/c3ccc(O)cc3O)s2)cc1` as the molecule, how does the Potency read?
Its Potency is inconclusive: 63.1 µM [inhibitor, partial curve].

How did the Potency turn out when `COC(=O)C1=CN(Cc2cccs2)C=C(C(=O)OC)C1c1cccc(O)c1` was run?
The Potency was inconclusive: 20 µM [quencher, side channel, single point].

How did the Potency turn out when `O=C(NCCO)Nc1ccc2nsnc2c1` was run?
Its Potency is inconclusive: 17.8 µM [quencher, partial curve].

How did the Potency turn out when `CC1(C)c2ccccc2N2CCC(=O)NC21/C=C/c1ccco1` (centres undefined) was run?
The Potency was inconclusive: 11.2 µM [quencher, side channel, partial curve, poor fit].

How did the Potency turn out when `COc1ccc(-n2nc(C(=O)NCC(=O)Nc3cc(OC)ccc3OC)c3ccccc3c2=O)cc1` was run?
Its Potency is inconclusive: 22.4 µM [quencher, side channel, single point].

`CC(CN1CCCC1)OC(=O)c1ccc(Br)cc1` (centres undefined) was tested. Which “activity change, negative = inhibition” value did it give?
Its value is inactive: -4.01%.

For `COc1ccccc1Oc1ccc2c(c1)C(=O)N(c1cccc(O)c1)C2=O`, which Potency is on record?
The Potency was inconclusive: 28.2 µM [quencher, side channel, partial curve].

How did the Potency turn out when `Cc1cc(C)nc(Sc2ncnc3c2oc2ccccc23)n1` was run?
Its Potency is inconclusive: 35.5 µM [fluorescent, side channel, partial curve].

For `O=C(Nc1nnc(-c2ccccc2)o1)c1cccc(N2C(=O)CCC2=O)c1`, which “activity change, negative = inhibition” value is on record?
The value was inactive: 5.23%.

Which “activity change, negative = inhibition” value does the source give for `Cc1ccc(OCc2nc(-c3ccccn3)n[nH]2)cc1` here?
Its value is inactive: -2.07%.

With `COc1ccc(OC)c(S(=O)(=O)Nc2ccccc2C(F)(F)F)c1` as the molecule, how does the Potency read?
Its Potency is inconclusive: 2.24 µM [quencher, side channel, partial curve].

With `Cn1cnc([N+](=O)[O-])c1Sc1ncnc2nc[nH]c12` as the molecule, how does the Potency read?
Its Potency is inconclusive: 15.8 µM [quencher, side channel, partial curve].

`CNC(=O)/C(=C\C=C\c1ccccc1)NC(=O)c1ccc([N+](=O)[O-])cc1` was tested. Which Potency did it give?
Its Potency is inconclusive: 15.8 µM [quencher, side channel, partial curve].

`O=C(CSc1cccc[n+]1[O-])Nc1cc([N+](=O)[O-])ccc1Cl` was tested. Which Potency did it give?
Its Potency is inconclusive: 11.2 µM [quencher, side channel, partial curve].

`COc1ccc(C(=O)Nc2ccc(-c3n[nH]c(=S)o3)cc2)cc1OC` was tested. Which “activity change, negative = inhibition” value did it give?
Its value is inactive: -4.32%.

How did the “activity change, negative = inhibition” value turn out when `CC1Cc2ccccc2N1C(=O)CN1CCc2ccccc2C1` (centres undefined) was run?
The value was inactive: 1.8%.

Which “activity change, negative = inhibition” value does the source give for `O=C1NC(=S)N/C1=C\c1cccnc1` here?
The value was inactive: -8.97%.

For `COc1cccc(C(=O)/C=C/Nc2ccc(S(=O)(=O)Nc3ccc(C(C)=O)cc3)cc2)c1`, which Potency is on record?
The Potency was inconclusive: 0.141 µM [fluorescent, side channel, full curve, poor fit].
